Test results from the supplement of paper PMC4967469.
Lines with a small IC50 respond at low doses; fits outside the tested doses are given as limits. AUC sums up the same curve from the lowest dose to the 256-fold higher top dose; it is 1 without any effect and falls as sensitivity rises. For some assays here: An inferred top dose comes from the curve model; the source does not state it.

How the values were obtained:
Experiment in all cases: Viability of human cancer cell lines after 72 h of drug (GDSC screen)
Obatoclax mesylate = compound: COC1=CC(c2cc3ccccc3[nH]2)=N/C1=C\c1[nH]c(C)cc1C [Obatoclax mesylate]; conditions: top dose 16 µM
Protocol: (§1)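 Human cancer cell lines in 384-well plates, medium with 10% serum, drug for 72 h over a 256-fold dose range (nine 2-fold or five 4-fold steps up to the top dose). Adherent lines were fixed and stained with the nucleic acid dye Syto60, suspension lines read with resazurin; signal relative to control wells, capped at 0 and 100%. One two-parameter sigmoid per drug and line, fitted in a mixed model over all curves with the slope shared within a line.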

CP724714 = compound: COCC(=O)NC/C=C/c1ccc2ncnc(Nc3ccc(Oc4ccc(C)nc4)c(C)c3)c2c1 [CP724714]; conditions: top dose 10.24 µM; top dose inferred
Protocol: as §1

STF-62247 = compound: Cc1cccc(Nc2nc(-c3ccncc3)cs2)c1 [STF-62247]; conditions: top dose 10.24 µM; top dose inferred
Protocol: as §1

CX-5461 = compound: Cc1cnc(CNC(=O)c2c(=O)c3ccc(N4CCCN(C)CC4)nc3n3c2sc2ccccc23)cn1 [CX-5461]; conditions: top dose 10.24 µM; top dose inferred
Protocol: as §1

Cell Line	AUC (Obatoclax mesylate)	IC50 (Obatoclax mesylate) [µM]	AUC (CP724714)	IC50 (CP724714) [µM]	AUC (STF-62247)	IC50 (STF-62247) [µM]	AUC (CX-5461)	IC50 (CX-5461) [µM]
HEC-1 (endometrium, adherent)	0.223	0.161	0.987	> 10.2	0.986	> 10.2	0.989	> 10.2
HGC-27 (stomach, adherent)	0.041	< 0.0625	0.974	> 10.2	0.98	> 10.2	0.948	> 10.2
HL-60 (acute myeloid leukaemia, suspension)	0.544	1.3	0.989	> 10.2	0.99	> 10.2	0.9	> 10.2
HLE (liver, adherent)	0.223	0.165	0.944	> 10.2	0.955	> 10.2	0.958	> 10.2
HMV-II (melanoma, adherent)	0.132	< 0.0625	0.941	> 10.2	0.98	> 10.2	0.963	> 10.2
HN (head and neck, adherent)	0.097	< 0.0625	0.988	> 10.2	0.989	> 10.2	0.989	> 10.2
HO-1-N-1 (head and neck, adherent)	0.127	0.0755	0.987	> 10.2	0.984	> 10.2	0.933	> 10.2
HO-1-u-1 (head and neck, adherent)	0.139	0.079	0.981	> 10.2	0.976	> 10.2	0.802	4.79
HOP-92 (large cell lung carcinoma, adherent)	0.3	0.249	0.973	> 10.2	0.98	> 10.2	0.985	> 10.2
HOS (osteosarcoma, adherent)	0.124	0.0865	0.992	> 10.2	0.991	> 10.2	0.964	> 10.2
HPAC (pancreas, adherent)	0.559	1.54	0.978	> 10.2	0.976	> 10.2	0.744	4.37
HPAF-II (pancreas, adherent)	0.603	2.09	0.978	> 10.2	0.978	> 10.2	0.931	> 10.2
HSC-2 (head and neck, adherent)	0.067	< 0.0625	0.982	> 10.2	0.989	> 10.2	0.989	> 10.2
HSC-3 (head and neck, adherent)	0.037	< 0.0625	0.989	> 10.2	0.99	> 10.2	0.99	> 10.2
HSC-4 (head and neck, adherent)	0.453	0.713	0.966	> 10.2	0.979	> 10.2	0.976	> 10.2
HT55 (large intestine, adherent)	0.677	3.12	0.99	> 10.2	0.99	> 10.2	0.99	> 10.2
HT-3 (cervix, adherent)	0.523	1.15	0.97	> 10.2	0.977	> 10.2	0.966	> 10.2
HT-29 (large intestine, adherent)	0.109	< 0.0625	0.974	> 10.2	0.946	> 10.2	0.949	> 10.2
HT-115 (large intestine, adherent)	0.902	> 16	0.946	> 10.2	0.989	> 10.2	0.991	> 10.2
HT-1080 (fibrosarcoma, adherent)	0.391	0.519	0.989	> 10.2	0.979	> 10.2	0.963	> 10.2
HT-1197 (bladder, adherent)	0.364	0.391	0.977	> 10.2	0.985	> 10.2	0.982	> 10.2
HT-1376 (bladder, adherent)	0.233	0.143	0.984	> 10.2	0.985	> 10.2	0.985	> 10.2

Cell Line	AUC (Obatoclax mesylate)	IC50 (Obatoclax mesylate) [µM]	AUC (CP724714)	IC50 (CP724714) [µM]	AUC (STF-62247)	IC50 (STF-62247) [µM]	AUC (CX-5461)	IC50 (CX-5461) [µM]
HTC-C3 (thyroid, adherent)	0.174	0.0888	0.954	> 10.2	0.983	> 10.2	0.945	> 10.2
HeLa (cervix, adherent)	0.403	0.55	0.979	> 10.2	0.985	> 10.2	0.964	> 10.2
Hep 3B2_1-7 (liver, adherent)	0.034	< 0.0625	0.971	> 10.2	0.981	> 10.2	0.986	> 10.2
Hs633T (fibrosarcoma, adherent)	0.212	0.176	0.991	> 10.2	0.985	> 10.2	0.754	2.9
Hs683 (glioma, adherent)	0.27	0.22	0.982	> 10.2	0.979	> 10.2	0.952	> 10.2
Hs766T (pancreas, adherent)	0.371	0.393	0.983	> 10.2	0.984	> 10.2	0.984	> 10.2
Hs939-T (melanoma, adherent)	0.29	0.24	0.986	> 10.2	0.97	> 10.2	0.986	> 10.2
Hs940-T (melanoma, adherent)	0.109	< 0.0625	0.972	> 10.2	0.983	> 10.2	0.984	> 10.2
Hs-578-T (breast, adherent)	0.325	0.314	0.987	> 10.2	0.987	> 10.2	0.987	> 10.2
HuCCT1 (biliary tract, adherent)	0.198	0.112	0.972	> 10.2	0.964	> 10.2	0.726	3.06
HuH-7 (liver, adherent)	0.29	0.256	0.975	> 10.2	0.976	> 10.2	0.987	> 10.2
HuO9 (osteosarcoma, adherent)	0.673	3.22	0.984	> 10.2	0.983	> 10.2	0.983	> 10.2
HuO-3N1 (osteosarcoma, adherent)	0.419	0.56	0.982	> 10.2	0.981	> 10.2	0.963	> 10.2
HuP-T3 (pancreas, adherent)	0.434	0.632	0.969	> 10.2	0.975	> 10.2	0.886	> 10.2
HuP-T4 (pancreas, adherent)	0.106	< 0.0625	0.979	> 10.2	0.932	> 10.2	0.701	2.44
IGR-1 (melanoma, adherent)	0.03	< 0.0625	0.99	> 10.2	0.97	> 10.2	0.708	2.26
IGR-37 (melanoma, adherent)	0.241	0.195	0.989	> 10.2	0.953	> 10.2	0.879	8.92
IHH-4 (thyroid, semi-adherent)	0.19	0.155	0.987	> 10.2	0.992	> 10.2	0.845	5.3
IM-95 (stomach, adherent)	0.24	0.167	0.95	> 10.2	0.985	> 10.2	0.96	> 10.2
IPC-298 (melanoma, adherent)	0.197	0.129	0.982	> 10.2	0.983	> 10.2	0.806	5.09
J82 (bladder, adherent)	0.174	0.103	0.987	> 10.2	0.985	> 10.2	0.986	> 10.2
JEG-3 (urogenital system, adherent)	0.575	1.57	0.985	> 10.2	0.991	> 10.2	0.991	> 10.2

Cell Line	AUC (Obatoclax mesylate)	IC50 (Obatoclax mesylate) [µM]	AUC (CP724714)	IC50 (CP724714) [µM]	AUC (STF-62247)	IC50 (STF-62247) [µM]	AUC (CX-5461)	IC50 (CX-5461) [µM]
JHH-1 (liver, adherent)	0.232	0.153	0.858	9.58	0.985	> 10.2	0.633	1.55
JHH-2 (liver, adherent)	0.773	6.72	0.985	> 10.2	0.986	> 10.2	0.733	3.13
JHH-4 (liver, adherent)	0.029	< 0.0625	0.977	> 10.2	0.958	> 10.2	0.98	> 10.2
JHH-6 (liver, adherent)	0.301	0.273	0.986	> 10.2	0.987	> 10.2	0.981	> 10.2
JHH-7 (liver, adherent)	0.299	0.283	0.973	> 10.2	0.989	> 10.2	0.885	9.96
JHU-011 (head and neck, adherent)	0.056	< 0.0625	0.929	> 10.2	0.979	> 10.2	0.798	4.78
JHU-022 (head and neck, adherent)	0.751	6.56	0.975	> 10.2	0.982	> 10.2	0.977	> 10.2
JIMT-1 (breast, adherent)	0.357	0.388	0.98	> 10.2	0.963	> 10.2	0.963	> 10.2
K2 (melanoma, adherent)	0.558	1.51	0.975	> 10.2	0.977	> 10.2	0.982	> 10.2
KMH-2 (thyroid, adherent)	0.025	< 0.0625	0.987	> 10.2	0.984	> 10.2	0.99	> 10.2
KMRC-1 (kidney, adherent)	0.682	3.35	0.987	> 10.2	0.986	> 10.2	0.987	> 10.2
KMRC-20 (kidney, adherent)	0.625	2.22	0.986	> 10.2	0.98	> 10.2	0.989	> 10.2
KON (head and neck, adherent)	0.043	< 0.0625	0.981	> 10.2	0.987	> 10.2	0.987	> 10.2
KOSC-2 (head and neck, adherent)	0.852	13.2	0.985	> 10.2	0.982	> 10.2	0.967	> 10.2
KP-2 (pancreas, adherent)	0.239	0.164	0.948	> 10.2	0.977	> 10.2	0.976	> 10.2
KP-3 (pancreas, adherent)	0.356	0.369	0.984	> 10.2	0.98	> 10.2	0.926	> 10.2
KP-4 (pancreas, adherent)	0.454	0.754	0.987	> 10.2	0.988	> 10.2	0.956	> 10.2
KU-19-19 (bladder, adherent)	0.669	2.96	0.982	> 10.2	0.971	> 10.2	0.987	> 10.2
KYM-1 (rhabdomyosarcoma, adherent)	0.27	0.249	0.989	> 10.2	0.991	> 10.2	0.986	> 10.2
KYSE-50 (oesophagus, adherent)	0.024	< 0.0625	0.952	> 10.2	0.985	> 10.2	0.949	> 10.2
